Experimental data taken from PubChem BioAssay AID1468 (National Center for Advancing Translational Sciences (NCATS), 2008).
Screen size: about 280,000 compounds; about 1,100 (0.39%) were called active. Inconclusive results, whose numbers are uncertain, are shown with a selection of clear calls. Calls come from the whole dose curve; as a rule, active = well fitted inhibition curve with a large enough effect; inconclusive = small, poorly fitted or top-dose-only effect, or effect the other way; inactive = flat fitted curve, though single readings scatter. Where the call is inconclusive, the potency comes from a doubtful curve fit.

target: Microtubule-associated protein tau (Homo sapiens) (UniProt P10636); test: qHTS for Inhibitors of Tau Fibril Formation, Fluorescence Polarization; settings: K18 P301L tau heparin fibrillization, Alexa594 FP, 6 h; series mostly up to 57.7 µM; note: nearly all actives have a fitted effect of over 55% in size
Sequence of UniProt P10636 (P10636 whole entry, looked up): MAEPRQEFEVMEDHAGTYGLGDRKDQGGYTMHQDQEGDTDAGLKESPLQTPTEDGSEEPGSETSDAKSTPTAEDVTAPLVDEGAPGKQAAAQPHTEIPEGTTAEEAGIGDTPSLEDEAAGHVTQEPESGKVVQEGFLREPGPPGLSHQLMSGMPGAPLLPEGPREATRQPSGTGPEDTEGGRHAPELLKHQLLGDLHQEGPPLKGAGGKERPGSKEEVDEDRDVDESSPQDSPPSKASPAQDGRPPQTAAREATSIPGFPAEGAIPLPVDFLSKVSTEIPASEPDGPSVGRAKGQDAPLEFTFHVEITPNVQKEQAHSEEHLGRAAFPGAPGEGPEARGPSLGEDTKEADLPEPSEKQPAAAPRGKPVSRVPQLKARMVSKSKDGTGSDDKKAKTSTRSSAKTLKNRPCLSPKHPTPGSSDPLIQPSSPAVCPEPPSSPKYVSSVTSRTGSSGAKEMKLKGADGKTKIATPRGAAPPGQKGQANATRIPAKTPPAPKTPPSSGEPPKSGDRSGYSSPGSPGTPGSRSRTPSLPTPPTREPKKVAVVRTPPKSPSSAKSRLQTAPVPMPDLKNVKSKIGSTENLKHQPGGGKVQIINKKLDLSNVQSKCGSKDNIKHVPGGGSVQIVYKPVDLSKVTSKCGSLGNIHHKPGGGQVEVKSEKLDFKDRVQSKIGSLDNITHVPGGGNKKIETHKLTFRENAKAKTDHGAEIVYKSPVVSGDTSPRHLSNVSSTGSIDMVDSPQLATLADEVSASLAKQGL
Procedure, shortened: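 Compound effects on tau fibrillization are measured by Alexa 594 fluorescence polarization (ex 555, em 632 nm). K18 P301L tau is used at 15 uM with 0.24 uM labeled tracer, and 20 uM heparin induces aggregation over 6 hr at 37 C.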
% is set by controls: 0 for no effect and ±100 for the full control effect; potency is the fitted concentration of half-maximal effect; tags give direction and shape of the fitted curve.

Potency, inactive:
Cc1ccccc1-c1nc2scc(CCNC(=O)c3ccco3)n2n1
CCn1cc(CNC(=O)c2cc(-c3ccc(C)cc3)nc3ccc(Br)cc23)c(C)n1
O=C(CN1CCOCCOCCOCC1)Nc1ccccc1
COc1ccc(COc2ccsc2C(=O)Nc2ccc(Cl)c(Cl)c2)cc1
CN(C)c1ccc(CN(C(=O)COc2ccc(Br)cc2)C2CCS(=O)(=O)C2)cc1 (configuration not stated)
CC1=C(/C=C/C(C)=C/C=C/C(C)=C\CO)C(C)(C)CCC1
CCCCc1ccc(NC(=O)COc2ccc(C(=O)Nc3ccccc3C)cc2)cc1
CCc1nc2ccccc2n1CCc1ccccc1
CC(=O)C1C(=O)c2c(cccc2[N+](=O)[O-])C1=Nc1cccc(Cl)c1 (configuration not stated)
O=C(Nc1cnc2ccccc2c1)N1CCOCC1
O=C(NC1CCCCC1)C(c1ccncc1)N(Cc1ccccc1)C(=O)c1ccc(-c2ccccc2)[nH]1 (configuration not stated)
Oc1ccc(N=C/C=C/c2ccc(Br)cc2)cc1-c1nc2ccccc2s1
CC(C)[C@@H](CC(=O)N[C@@H]1CCNC[C@H]1C(=O)N[C@H](CC(=O)N[C@@H](CCC(=O)O)CC(=O)O)Cc1c[nH]c2ccccc12)NC(=O)C[C@H](Cc1ccccc1)NC(=O)[C@@H]1CCCC[C@H]1N
O=C1c2ccccc2C(=O)N1CCCCN(C(=O)c1cc([N+](=O)[O-])cc([N+](=O)[O-])c1)c1ccc(Cl)cc1
Cc1ccnc(SCC(=O)c2ccc(Br)cc2)c1C#N

Potency, inconclusive:
N=c1n(CCCOc2ccc(Br)cc2)c2ccccc2n1CC(N)=O 44.7 µM [inhibitor, single point]
O=c1cc(O)c2ccccc2n1Cc1ccccc1 31.6 µM [inhibitor, partial curve]
Cc1sc2ncn(CC(=O)N3CCN(c4ccccc4F)CC3)c(=O)c2c1S(=O)(=O)N1CCC(C)CC1 15.8 µM [inhibitor, partial curve]
Cc1ccc(CNC(=O)Cn2c(SCC(=O)Nc3ccc(F)cc3)nc3ccccc32)cc1 15.8 µM [inhibitor, partial curve]
CCOC(=O)c1cc(-c2ccc(OC)cc2)n(CCC(=O)NCCc2ccccc2)c1C 1.26 µM [activator, partial curve, poor fit]
CCN(CC)S(=O)(=O)c1cccc(NC(=O)COc2ccc(F)cc2Br)c1 20 µM [inhibitor, partial curve, poor fit]
CCCCn1c(=O)c2[nH]c(C34CC5CC(CC3C5)C4)nc2n(CCCO)c1=O 7.94 µM [inhibitor, single point]
Cc1[nH]c2ccccc2c1/C=N/NC(=O)c1cccc(S(=O)(=O)Nc2cccc(C(F)(F)F)c2)c1 35.5 µM [inhibitor, single point]
CC1(C)Cc2c(C#N)c(N3CCN(C(=O)c4ccccc4)CC3)nc(Cc3ccccc3)c2CO1 39.8 µM [activator, single point]
Cc1nn(CCc2nn[nH]n2)c2nc(-c3ccc(Br)cc3)cc(C(F)(F)F)c12 12.6 µM [activator, partial curve, poor fit]
Clc1ccc(C[n+]2csc3ccccc32)cc1 28.2 µM [inhibitor, single point]
COc1ccc(/C=C/C(=O)OCC(=O)c2c(C)[nH]c3ccccc23)cc1OC 12.6 µM [inhibitor, partial curve]
CC1CCC/C(=C\Nc2ccc(O)cc2)C1=O (configuration not stated) 28.2 µM [inhibitor, partial curve]
CCS(=O)(=O)N1CCN(c2ccccn2)CC1 11.2 µM [inhibitor, partial curve]
Cc1cccc(N2CCN(C(=O)Cn3sc4nc(C)cc(C)c4c3=O)CC2C)c1 (configuration not stated) 31.6 µM [inhibitor, partial curve, poor fit]
Cc1ccc(-c2cn3c(n2)sc2cc(C(=O)NCCCN4CCCCCC4)ccc23)cc1 44.7 µM [inhibitor, single point]
C/C=C(/C(=C/C)c1ccc(O)cc1)c1ccc(O)cc1 8.91 µM [inhibitor, single point]
Nc1nc2[nH]c(=O)[nH]c2c(=O)[nH]1 39.8 µM [inhibitor, single point]
CCOc1ccc(C(=O)Nc2c(C(=O)Nc3ccccc3OC)oc3ccccc23)cc1OCC 1.26 µM [inhibitor, full curve, poor fit]
CC(=O)c1cccc(NC(=O)Nc2sc3nc4n(c(=O)c3c2C)CCC(C)CC4)c1 (configuration not stated) 1 µM [activator, partial curve, poor fit]
Cc1ccsc1CCN1C(=O)N(c2ccccc2)C(=O)C1CC(=O)Nc1ccc(Cl)cc1 (configuration not stated) 31.6 µM [inhibitor, partial curve]
CC(C)CC(=O)n1sc(NC(=O)c2ccccc2)nc1=O 17.8 µM [inhibitor, partial curve]
CCS(=O)(=O)c1ncc(Cl)c(C(=O)N2CCN(c3ccc(OC)cc3)CC2)n1 17.8 µM [inhibitor, single point]
CCC1CSC(Nc2ccc(C(=O)/C=C/c3ccc(Oc4ccccc4)cc3)cc2)=N1 (configuration not stated) 39.8 µM [inhibitor, single point]
CC(C)C[C@H](NC(=O)c1[nH]cnc1C(=O)N[C@H](C)c1ccccc1)C(=O)OC(C)(C)C 20 µM [inhibitor, single point]

Potency, active:
Cc1cc(C)cc(OCCSc2nc3ccc(NC(=O)c4cccs4)cc3s2)c1 7.08 µM

activity, negative = inhibition, inactive:
O=C1C=C[C@@H](O)[C@H]2[C@@H]3C(=O)N(C[C@@H]4CCCO4)C(=O)[C@@H]3CC[C@H]12 2.34% [at 11.6 µM]
